# Results from the BET-seq Pho4 binding data (Le et al. 2018).
# Some of the results follow. These are noisy estimates, calculated here from bound and input reads.
# Target: T1, Pho4 (S. cerevisiae) (UniProt P07270)
# T1 sequence: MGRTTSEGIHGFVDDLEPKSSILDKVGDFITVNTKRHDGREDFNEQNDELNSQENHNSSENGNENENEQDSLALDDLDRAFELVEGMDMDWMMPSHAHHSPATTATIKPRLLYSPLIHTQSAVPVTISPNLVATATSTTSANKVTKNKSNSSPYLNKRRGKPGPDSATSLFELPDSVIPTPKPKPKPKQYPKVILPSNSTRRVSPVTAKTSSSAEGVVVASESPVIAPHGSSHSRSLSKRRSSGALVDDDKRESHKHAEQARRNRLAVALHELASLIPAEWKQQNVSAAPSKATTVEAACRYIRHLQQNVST
# Test: relative binding free energy (BET-seq); higher = weaker binding
# Settings: reference: library average
row,Sequence,relative binding free energy
1,AGTACCACGTGATTGG,0.22 kcal/mol
2,GTGGGCACGTGTCTTA,-0.17 kcal/mol
3,ATATTCACGTGGTGCT,0.22 kcal/mol
4,TCTTTCACGTGGTAGT,0.18 kcal/mol
5,TGTAGCACGTGACGAG,0.16 kcal/mol
6,TAAAACACGTGTGTGT,0.05 kcal/mol
7,AGGAGCACGTGGTAGG,-0.16 kcal/mol
8,GAGTACACGTGTTTGT,0.11 kcal/mol
9,GTTGACACGTGACGTG,0.11 kcal/mol
10,ATTAGCACGTGTAAAG,0.11 kcal/mol
11,AGAGACACGTGTTGTG,-0.02 kcal/mol
12,GTGTTCACGTGAACGT,0.22 kcal/mol
13,ATTGGCACGTGCTTCG,-0.13 kcal/mol
14,AGTATCACGTGATGTT,0.27 kcal/mol
15,GCTGGCACGTGAATAT,0.31 kcal/mol
16,CGTATCACGTGGGCAT,0.08 kcal/mol
17,TAAGACACGTGTGGGT,0.04 kcal/mol
18,ATGGCCACGTGTTTGG,-0.06 kcal/mol
19,GTAGGCACGTGATGAT,0.1 kcal/mol
20,GTGGGCACGTGAATAT,0.17 kcal/mol
21,TAGGTCACGTGGAAAG,0.13 kcal/mol
22,AGGATCACGTGCATTT,0.37 kcal/mol
23,ATGGCCACGTGGCGGT,-0.21 kcal/mol
24,GAGGTCACGTGCCGGG,0.15 kcal/mol
25,TTGGACACGTGTGGCT,0.13 kcal/mol
26,TACGTCACGTGGCGGT,-0.03 kcal/mol

row,Sequence,relative binding free energy
1,TATGGCACGTGTCTTT,0.05 kcal/mol
2,GGTATCACGTGATGGT,0.31 kcal/mol
3,ATAGGCACGTGGGGGT,-0.3 kcal/mol
4,AGGGACACGTGATGCT,0.12 kcal/mol
5,TTTGGCACGTGTAATC,0.12 kcal/mol
6,ATGCTCACGTGTGATG,0.23 kcal/mol
7,GTAAACACGTGTGTAG,0.1 kcal/mol
8,TCGTTCACGTGGTATT,0.11 kcal/mol
9,AGGGACACGTGCGTGG,-0.04 kcal/mol
10,TTCAGCACGTGCGGGG,-0.21 kcal/mol
11,TGTGTCACGTGTGGGA,0.14 kcal/mol
12,AATTTCACGTGTTATC,0.33 kcal/mol
13,AGGTGCACGTGGAAGC,0.03 kcal/mol
14,GTGTGCACGTGTCGGG,0.03 kcal/mol
15,TGAAGCACGTGTGCGG,-0.1 kcal/mol
16,ATGCTCACGTGTCTGT,0.16 kcal/mol
17,TCCGGCACGTGTGAGT,0.1 kcal/mol
18,GTGAGCACGTGGACGT,-0.1 kcal/mol
19,ACGGGCACGTGGGCAG,-0.32 kcal/mol
20,GTGGACACGTGGTGAC,-0.06 kcal/mol
21,TGATTCACGTGTGGCT,0.34 kcal/mol
22,TTAGGCACGTGTCATG,-0.2 kcal/mol
23,AATTACACGTGTAGGG,0.16 kcal/mol
24,TGGTCCACGTGGGCTA,-0.08 kcal/mol
25,TGACGCACGTGGGTTG,-0.3 kcal/mol
26,GTGTACACGTGATGTG,0.16 kcal/mol

row,Sequence,relative binding free energy
1,AATGGCACGTGGGATG,-0.2 kcal/mol
2,GTTATCACGTGGTACA,0.18 kcal/mol
3,TCATGCACGTGTCTGT,0.03 kcal/mol
4,TGGGGCACGTGCGAAA,-0.15 kcal/mol
5,GAATGCACGTGTTTGT,0 kcal/mol
6,TTTAACACGTGTGTAC,0.04 kcal/mol
7,TGTTGCACGTGCGTGC,-0.03 kcal/mol
8,GTCAGCACGTGGGGTT,-0.21 kcal/mol
9,TGGTGCACGTGGAAAT,0.02 kcal/mol
10,AGGGGCACGTGCAAGG,-0.1 kcal/mol
11,TGTATCACGTGGGGTT,0.09 kcal/mol
12,GTGTGCACGTGGTTCA,-0.02 kcal/mol
13,TCGGTCACGTGGGCGG,-0.06 kcal/mol
14,TTCTCCACGTGTGGGG,0 kcal/mol
15,AGCTGCACGTGAGGTA,0.19 kcal/mol
16,TTTTTCACGTGTCTCT,0.25 kcal/mol
17,GGAATCACGTGTCTTT,0.28 kcal/mol
18,GGATTCACGTGTGGAT,0.24 kcal/mol
19,TTGCTCACGTGATTTA,0.41 kcal/mol
20,GTTAGCACGTGGTCAT,-0.01 kcal/mol
21,AGGTGCACGTGGCTCG,0.03 kcal/mol
22,TATTCCACGTGGGTGG,-0.22 kcal/mol
23,ATAAGCACGTGTATGT,-0.07 kcal/mol
24,TTTTTCACGTGCTCGG,0.27 kcal/mol
25,AAATGCACGTGCTGTG,-0.15 kcal/mol
26,GCTTGCACGTGTAGAG,0.12 kcal/mol

row,Sequence,relative binding free energy
1,ATTTTCACGTGGGCGG,0.29 kcal/mol
2,TTTGTCACGTGTGCAG,-0.02 kcal/mol
3,AAGTACACGTGGGGGT,-0.13 kcal/mol
4,AAGTTCACGTGGCGGT,0.37 kcal/mol
5,CTTGCCACGTGGGTTT,-0.12 kcal/mol
6,GGTGTCACGTGTGAGA,0.26 kcal/mol
7,CATGTCACGTGTTTGG,0.07 kcal/mol
8,ATGTTCACGTGACATG,0.11 kcal/mol
9,TGGGACACGTGAGGGA,0.25 kcal/mol
10,TAGATCACGTGGAGAG,0.18 kcal/mol
11,AGTTACACGTGGGTGA,0 kcal/mol
12,CAGTTCACGTGTGGTA,0.31 kcal/mol
13,ATAGGCACGTGATGCT,0.03 kcal/mol
14,GTCATCACGTGGTATG,0.18 kcal/mol
15,TGTTTCACGTGGTGGA,0.19 kcal/mol
16,GGTGTCACGTGTTTGC,0.15 kcal/mol
17,GGGCGCACGTGCGAGT,-0.19 kcal/mol
18,GTCTCCACGTGTGGGG,0.21 kcal/mol
19,GTTCGCACGTGGGGTA,-0.12 kcal/mol
20,AGTGTCACGTGTTGCA,-0.12 kcal/mol
21,TGAGACACGTGTTAAG,0.13 kcal/mol
22,AGCGTCACGTGGCGCG,0.11 kcal/mol
23,GCAAGCACGTGAGGTG,0.11 kcal/mol
24,GTAGTCACGTGGGATG,0.01 kcal/mol
25,ATGGGCACGTGAGCGC,0.08 kcal/mol
26,TTCTTCACGTGTTCGG,0.37 kcal/mol

row,Sequence,relative binding free energy
1,TATGACACGTGTTTGG,0.06 kcal/mol
2,CTGTACACGTGGGTAA,-0.14 kcal/mol
3,GTAGGCACGTGGGCTA,-0.21 kcal/mol
4,TGAGTCACGTGCTAGG,-0.02 kcal/mol
5,TCGAGCACGTGATGGT,0.14 kcal/mol
6,TAGCGCACGTGATTTG,0.04 kcal/mol
7,TGATGCACGTGTAGCT,0 kcal/mol
8,CAGGGCACGTGGGTCT,-0.24 kcal/mol
9,GTTTACACGTGAGGGC,0.32 kcal/mol
10,CTGTGCACGTGGTTGG,-0.11 kcal/mol
11,TGGGGCACGTGGAAGA,-0.09 kcal/mol
12,AGAGTCACGTGTATGT,0.2 kcal/mol
13,GGGGTCACGTGTGAGC,0.18 kcal/mol
14,AGGTGCACGTGTAGAT,0.18 kcal/mol
15,TGAGGCACGTGGACAG,-0.13 kcal/mol
16,TTAGACACGTGTATGC,0 kcal/mol
17,ATAGGCACGTGTGTAT,-0.1 kcal/mol
18,TGGGGCACGTGGCATG,-0.2 kcal/mol
19,CGTAACACGTGGGATG,-0.03 kcal/mol
20,GGGACCACGTGGTAGT,-0.09 kcal/mol
21,TTTGGCACGTGGACAG,-0.06 kcal/mol
22,GTGCGCACGTGTGGAA,0.01 kcal/mol
23,TTCTACACGTGGTAGT,-0.06 kcal/mol
24,ATGACCACGTGTATGG,0.01 kcal/mol
25,TACTTCACGTGTTTTC,0.32 kcal/mol
26,GTGGCCACGTGCCGGT,-0.05 kcal/mol

row,Sequence,relative binding free energy
1,GGCAGCACGTGTAGGT,-0.08 kcal/mol
2,GAGGCCACGTGAAAGG,0.41 kcal/mol
3,GCTAGCACGTGTGGTT,-0.04 kcal/mol
4,TTGGACACGTGGGGTT,-0.08 kcal/mol
5,TACTTCACGTGTTGTA,0.39 kcal/mol
6,ACTCACACGTGTGGTT,0.24 kcal/mol
7,AATGTCACGTGGTTGT,-0.03 kcal/mol
8,AGTAGCACGTGTATGA,0 kcal/mol
9,ACTTTCACGTGTGTAT,0.31 kcal/mol
10,TCCGGCACGTGGTGGC,-0.09 kcal/mol
11,GGATTCACGTGTTAGC,0.3 kcal/mol
12,GGAAGCACGTGTGAGG,-0.18 kcal/mol
13,GTCGGCACGTGAGGGA,0.15 kcal/mol
14,TATATCACGTGTCATG,0.2 kcal/mol
15,TTTTTCACGTGTTTGT,0.31 kcal/mol
16,TTATGCACGTGTGGCA,-0.02 kcal/mol
17,TCGGGCACGTGTTGTG,-0.13 kcal/mol
18,TTTCACACGTGGGGGT,-0.11 kcal/mol
19,GGTAGCACGTGATTTT,0.09 kcal/mol
20,GATGGCACGTGGCGCG,-0.11 kcal/mol
21,GTTTGCACGTGTACTT,0.14 kcal/mol
22,GAGCACACGTGGGTTT,0.04 kcal/mol
23,TTTGGCACGTGAGAGA,0.18 kcal/mol
24,TTACACACGTGAGTTT,0.3 kcal/mol
25,CGAGTCACGTGGAGTT,0.11 kcal/mol
26,ATGTTCACGTGGAGTA,0.24 kcal/mol

row,Sequence,relative binding free energy
1,TGTGGCACGTGGGCTG,-0.2 kcal/mol
2,GGACGCACGTGCTGGG,-0.05 kcal/mol
3,TTGGTCACGTGTTAAG,0.18 kcal/mol
4,AGGGACACGTGCTGTT,-0.02 kcal/mol
5,AAGAACACGTGGAGTG,-0.05 kcal/mol
6,TAGGGCACGTGAGGAG,0.15 kcal/mol
7,GTGGTCACGTGTTTAC,0.14 kcal/mol
8,ATATACACGTGTTATT,0.02 kcal/mol
9,ATCTTCACGTGCTGGT,0.17 kcal/mol
10,GGAGGCACGTGTGATG,0.03 kcal/mol
11,GGCGACACGTGAGGTT,0.22 kcal/mol
12,GTGGGCACGTGAGGCT,0.17 kcal/mol
13,TAATTCACGTGAGGAT,0.51 kcal/mol
14,CATTTCACGTGGGTAA,0.08 kcal/mol
15,AGGTTCACGTGAAGTG,0.36 kcal/mol
16,TTGAACACGTGGAGGC,0.04 kcal/mol
17,GTTGCCACGTGGAATG,0.03 kcal/mol
18,GGCGGCACGTGTCGGG,-0.05 kcal/mol
19,GCGTTCACGTGGTCGG,0.25 kcal/mol
20,AGTACCACGTGGGATT,-0.06 kcal/mol
21,AGGGTCACGTGGATGT,0.07 kcal/mol
22,TATCGCACGTGCGGTG,-0.11 kcal/mol
23,GCGTACACGTGTGGGA,0.06 kcal/mol
24,GGGGGCACGTGAATGC,0.25 kcal/mol
25,GTGGTCACGTGTCGCT,0.01 kcal/mol
26,GGAGACACGTGTAATG,0.12 kcal/mol

row,Sequence,relative binding free energy
1,TTATGCACGTGGCATG,0 kcal/mol
2,AGGGTCACGTGGGCCA,-0.03 kcal/mol
3,TTGATCACGTGCGGGA,-0.07 kcal/mol
4,GGTTGCACGTGCATTA,0.02 kcal/mol
5,GATGACACGTGTTAGT,0.08 kcal/mol
6,GTGGCCACGTGGTAGC,0.02 kcal/mol
7,GTGGCCACGTGGTGTC,-0.11 kcal/mol
8,GGTATCACGTGGGTAG,-0.04 kcal/mol
9,TTGGGCACGTGTTGGC,-0.03 kcal/mol
10,TACTGCACGTGGGTAA,-0.13 kcal/mol
11,AGCGTCACGTGGGGAA,-0.05 kcal/mol
12,TAGGGCACGTGGGATG,-0.2 kcal/mol
13,TCGGGCACGTGGGCTA,-0.27 kcal/mol
14,GTAGTCACGTGGTTTG,0.13 kcal/mol
15,AGTTTCACGTGGGTTT,0.2 kcal/mol
16,TATATCACGTGATCTT,0.02 kcal/mol
17,AGATTCACGTGGTCGT,0.15 kcal/mol
18,GAGGTCACGTGTGCAG,0.03 kcal/mol
19,GGTGGCACGTGGTATC,-0.07 kcal/mol
20,GTATTCACGTGTTCTT,0.11 kcal/mol
21,TAAGTCACGTGGGTTT,-0.02 kcal/mol
22,AGGGCCACGTGGTAGG,-0.11 kcal/mol
23,TGGGGCACGTGAAATC,0.19 kcal/mol
24,GATGGCACGTGTTAGT,-0.09 kcal/mol
25,ACATTCACGTGATGGG,0.31 kcal/mol
26,CAATTCACGTGGGGTA,0.21 kcal/mol

row,Sequence,relative binding free energy
1,TTAAACACGTGATTGT,0.05 kcal/mol
2,TAAGTCACGTGATTTC,0.31 kcal/mol
3,CTGTCCACGTGGAGGT,0.02 kcal/mol
4,TACGGCACGTGTTTGG,-0.14 kcal/mol
5,GGGTACACGTGCGGTG,0.05 kcal/mol
6,GGGAGCACGTGGTATC,-0.05 kcal/mol
7,CAGGTCACGTGGGGTC,0.04 kcal/mol
8,TGTTTCACGTGAGTAA,0.43 kcal/mol
9,TATGGCACGTGTCTGG,-0.11 kcal/mol
10,TAGGGCACGTGCGAGG,-0.18 kcal/mol
11,AGGGTCACGTGTGCCT,0.07 kcal/mol
12,GGATACACGTGTTTCG,0.03 kcal/mol
13,TTTCACACGTGGGGTC,0.1 kcal/mol
14,TTGGTCACGTGAGAAG,0.37 kcal/mol
15,TATTGCACGTGATTGG,0.12 kcal/mol
16,CGGTCCACGTGGGGCG,-0.06 kcal/mol
17,GCATACACGTGTGTTT,0.11 kcal/mol
18,CTGTTCACGTGGTGGA,0.18 kcal/mol
19,ATTTGCACGTGTGGTC,0.22 kcal/mol
20,GGTGCCACGTGTATAT,0 kcal/mol
21,GCTGTCACGTGGCAGG,0.23 kcal/mol
22,TTATTCACGTGTGCCT,0.21 kcal/mol
